The supplement of paper PMC12632987
Over roughly 4,500 sequences, “median log2 fold change of GCK-ALFA target abundance (FLAG IP / Myc IP barcode read proportion)” has its median near 0.078; the lowest 2% begin near -0.6. Some of the results follow.

B1: GBRAP_166_4888 (protein)
chain: SEEEVKKKAEELKEELIEKLKKLSESQLEEKTELVFEWARELKKLGVSKREAVELLIEAAREVGLSEEALNAAAAAVIIELDLDEETIELLDKLIEEYLK
B2: GBRAP_160_4021 (protein)
chain: SEEIEELIKEIEELIEETIEDIEGLTPEERLTLVRGTVGEILQLAFESPVVSDETEDKIAEIGDETIARFEANADATLEEHRAIFEEFLEEIKELLESEK
B3: GBRAP_128_3184 (protein)
chain: SVEEVKKKTTELMEKIKNSSVEEARKIATELAEWLKTLSLEEVEAAAEVILEKLPELSEEKLEVLADVLREERPKFSPEKAEIVAGVEVEALNEAEELEE
B4: GBRAP_35_5508 (protein)
chain: SADDTAADMLVATIEDLTLAVPDLDVETATQIANQLIASAAALADDLADNPAALDRLRDAVTALRDAIEKHYGDSPLAKQTLAQLDALIARLDARRAAAA
B5: GBRAP_11_2671 (protein)
chain: MKETLLEAAEIAEKAAKVVKELIEKGVDDEELLKELEELLKKLEEIAKKHLSPALQRDVEVARELFEEMLKDKENKEKYAKELLAALRVLEGNLLLEADE
B6: GBRAP_160_4461 (protein)
chain: MEEIKKFVEELVKDVEEELEKNKNDSPENIINAAIIEIGSHLMEAVDKGIVTDEMEEILMEAMDKIRELAKTHPNASPEEIIEKIKEIVKEMAEKILKAA
B7: GBRAP_184_5048 (protein)
chain: KVKEEVIKYETLEELKEKLEALKEELKDFKGDLIVLLEAKKITKEDVEAAIDALADILKAGYVTSVTVGFDGEMSEEVIDLALKLGDEAGIKVVLALEEE
B8: GBRAP_125_2971 (protein)
chain: EEEELLEDLRTLALALGLSEEDAEEAVRLARASSVKQTLYAIAAALGYEELAEAVEKLTEEEAKEVLRRVTEEIRANPEMTPEEVKELLLEEAERAIEER
B9: GBRAP_39_5692 (protein)
chain: EEEEEDEDVVSYLQALAAGRLYETGKSLEEAYKEAKKILEEEAKRHPELKELLEELIKLADEKGEEAKEVLIGIAVLIEEGTPLEEIKEHIEKAINYFKK
B10: GBRAP_26_5435 (protein)
chain: VEETLRRAEEEMRKAAAKLGDPNKAAAAVAEFLTLLEEAVEEIEEKKLSKEEAEKLVEEKAEEFRKELKRLGVDEDKAKELVEVFKEQLRKVAEKILKER
B11: GBRAP_84_7001 (protein)
chain: SKEERREELLEFIIENSSIELLKLAYIYALLKNDNKSATRLLNALLERDPEAAAEALDLATEAALEDKEEEVKKELLEEAKKEGEEIYEAVEEYIELLEE
B12: GBRAP_57_6459 (protein)
chain: MSKLEKIEAAAERVKALIEAGAPREEIEAAVRELLALLSKEVLLDTLLILDPSTRADLSLEELRERLLALIMRLLEEEGPEAAIRAIDLLVGQAEAEVEE
B13: GBRAP_43_5792 (protein)
chain: MKEIVEGALDFARTALETPEITDETKARIVVDAVEFAADEGLLTKEELKELLELLEESVSLEVAIEALEKIKEILKKLGAPQELIDVVEEALERVKKKAA
B14: GBRAP_160_4731 (protein)
chain: SARIEEFAKEAEEIFLKAVEDSKDESKEEAAALFRGAAGEVLMDVMSDPRFTDEQEDAAAEILDELVKELEANFDASEEEKKKIVKEKIEKLLKELKAIK
B15: GBRAP_128_3434 (protein)
chain: SEEEKLEEAFKLIEEILKASVEEVYKLTKELLELFGTLSEENAEKVADYLISKIPELTKEQLEALAEAMREKRPELDEYHANLVNEVEVEALNEILELEE
B16: GBRAP_125_3054 (protein)
chain: NLEEAIEALAELGKILGLSEEEVEELRKLAEKYGVKGTLYALLLAEGEEELAELVAKLTEEEVIEVLKRLLEYIKSHPNITKEEALEKLKELAEEALAKK
B17: GBRAP_74_6571 (protein)
chain: MEKYTKEMKAAAAAGDVKKAIKIVEEMIEKGIKKVSAEFLNALATIAEKHLPKATPEEQERFIDAASELVDLVLESEQDEETYKALNKLITALYEAELAR
B18: GBRAP_128_3427 (protein)
chain: STAAKVAEVEALLEAMLTADAAEAAALARRIAALMLASDLETVEAMVEVILSMLPKFTAEQLEILADALREARPEFTPEKQLLVSEVEVAALNEAEEKEE
B19: GBRAP_160_4283 (protein)
chain: SEEAEKLKEEVREIAEETIAMMEGETQANRVTIVRVAGGEVALALLESEEVTDETVDKALEIWDELAAYIAAHPDLTQEELAELVREAEEKIKEEIEKEA

molecular target: GABARAP, O95166; test: median log2 fold change of GCK-ALFA target abundance (FLAG IP / Myc IP barcode read proportion) (log2 ratio); each designed protein is fused to an ALFA-tag nanobody in HEK293 cells to bring the named protein to FLAG-tagged glucokinase (GCK); Myc marks an untargeted standard; higher = target protein stabilised (more abundant); conditions: target protein: 3xFLAG-MCP-GCK-ALFA reporter; HEK293 landing pad (RPLP)
Sequence (O95166 whole entry, the tested form may be a part): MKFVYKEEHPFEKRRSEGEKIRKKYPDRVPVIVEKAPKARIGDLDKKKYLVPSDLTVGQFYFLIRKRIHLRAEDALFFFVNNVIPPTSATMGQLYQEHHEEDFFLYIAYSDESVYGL
How it was run: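 Sequencing of reverse-transcribed, amplified circular RNA barcodes from anti-FLAG and anti-Myc immunoprecipitates provided the readout for an ALFA-nanobody-fused binder library recombined into HEK293 landing-pad cells. Those cells were induced with 2 μg mL^−1 doxycycline, transfected with a plasmid expressing a FLAG-tagged target and a Myc-tagged standard, and lysed after 48 h. Target abundance is the per-binder median log2 ratio of FLAG to Myc barcode read proportions. Only barcodes at a proportion of ≥10^−7 in both replicates and binders with ≥3 barcodes per replicate were kept, with a 10^−6 pseudocount added before the two replicates were pooled.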

Binder | median log2 fold change
B1 | 0.0518
B2 | -0.0319
B3 | 0.0381
B4 | -0.0855
B5 | 0.189
B6 | 0.0432
B7 | 0.153
B8 | 0.116
B9 | 0.284
B10 | 0.244
B11 | 0.168
B12 | 0.269
B13 | 0.0287
B14 | 0.211
B15 | 0.000172
B16 | -1.42
B17 | -0.298
B18 | 0.18
B19 | -0.154
